# Among all 48,000 compounds or so, about 550 (1.1%) were called active. Another 4% or so got no clear call; they are omitted. No stated cut-off is given here; in the data, active means potency below about 15 µM; inconclusive means mostly about 16 µM to 33 µM; inactive means weaker than that. The list shows a part of the results.
# Target: Lysosomal acid glucosylceramidase (Homo sapiens) (UniProt P04062)
# Assay: Glucocerebrosidase;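 further: the screen sought inhibitors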
# Conditions: purified enzyme, resorufin glucoside fluorescence (screen aimed at inhibitors), 20 min
# Summary of the method: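 Normal human glucocerebrosidase (0.2 nM final) was assayed with resorufin β-D-glucopyranoside (30 uM final) in 50mM citric acid/KH2PO4, 10mM sodium taurocholate, 0.01% tween-20, pH 5.9. Compounds were titrated; fluorescence (Ex 548, Em 600) read after 20 min at RT.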
# Potency means the concentration at half of the fitted maximal effect.
# Sequence of UniProt P04062 (P04062 whole entry, looked up): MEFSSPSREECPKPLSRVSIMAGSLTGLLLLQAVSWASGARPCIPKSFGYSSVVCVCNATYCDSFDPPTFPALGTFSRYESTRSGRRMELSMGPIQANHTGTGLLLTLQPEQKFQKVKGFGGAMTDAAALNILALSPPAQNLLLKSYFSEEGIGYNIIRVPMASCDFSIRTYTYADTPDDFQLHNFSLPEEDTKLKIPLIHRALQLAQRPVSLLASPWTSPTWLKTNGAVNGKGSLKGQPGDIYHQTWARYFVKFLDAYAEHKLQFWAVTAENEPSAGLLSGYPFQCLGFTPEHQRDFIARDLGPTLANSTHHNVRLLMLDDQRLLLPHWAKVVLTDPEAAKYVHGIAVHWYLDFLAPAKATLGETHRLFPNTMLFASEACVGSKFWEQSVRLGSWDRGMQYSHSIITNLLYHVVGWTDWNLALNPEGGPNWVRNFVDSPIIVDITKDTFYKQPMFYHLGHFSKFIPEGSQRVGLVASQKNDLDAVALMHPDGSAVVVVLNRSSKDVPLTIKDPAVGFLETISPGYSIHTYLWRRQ
row,Structure (SMILES),Potency
1,COC(=O)C1=C(C)Nc2ncnn2C1c1ccc(OCc2ccccc2)cc1 (configuration not stated),inactive: > 76.9 µM
2,N#Cc1c(C(F)(F)F)cc(-c2ccccc2)nc1SCc1nc(N)nc(N2CCOCC2)n1,inactive: > 76.9 µM
3,Cc1ccccc1-n1nc2c(c1NC(=O)c1cc3ccccc3oc1=O)CS(=O)(=O)C2,inactive: > 76.9 µM
4,O=C(Nc1ccc(F)cc1)N1CCOCC1,inactive: > 76.9 µM
5,COCCn1c(-c2ccc(Cl)cc2)cnc1SCC(=O)NCc1cccs1,inactive: > 76.9 µM
6,O=C(CC1C(=O)NCCN1C(=O)Nc1ccccc1)Nc1ccc2c(c1)OCO2 (configuration not stated),inactive: > 76.9 µM
7,Cc1c[nH]c2cccc(OCC(O)CNC(C)(C)C)c12 (configuration not stated),inactive: > 76.9 µM
8,Cc1ccc(OCc2ccc(C(=O)Nc3nccs3)o2)cc1,inactive: > 76.9 µM
9,CCCOC(=O)c1[nH]c2c(c1C)C(=O)CC(c1ccc(OC)c(OC)c1)C2 (configuration not stated),inactive: > 76.9 µM
10,CCc1ccc(NC(=O)CCNS(=O)(=O)c2cccc3nonc23)cc1,inactive: > 76.9 µM
11,CCc1cc2c(CN3CCN(CC)CC3)cc(=O)oc2cc1O,inactive
12,O=C(Nc1ccccc1C(=O)N1CCOCC1)c1noc2c1CCCC2,inactive: > 76.9 µM
13,CNc1nnc(CSc2nc(C)cc(C)n2)s1,inactive: > 76.9 µM
14,CC(=O)OCC(OC(C)=O)C(OC(C)=O)C(OC(C)=O)C(=O)Nc1ccc(C)cc1 (configuration not stated),inactive: > 76.9 µM
15,COc1ccc(NC(=O)c2cc(-c3cc(C)cc(C)c3O)n[nH]2)cc1Cl,inactive: > 76.9 µM
16,COc1ccc(NC(=O)CCCN2C(=O)CCC2=O)cc1Cl,inactive: > 76.9 µM
17,CCc1ccc(-n2c(SCC(=O)Nc3cc(C)[nH]n3)nc3[nH]ncc3c2=O)cc1,inactive: > 76.9 µM
18,CC1Cc2ccccc2N1C(=O)c1ccnc(C(C)(C)C)c1 (configuration not stated),inactive: > 76.9 µM
19,CCN(CC)c1cc2nonc2c2nonc12,inactive: > 76.9 µM
20,CC1CCCCC1NC(=O)Cn1cnc2ccccc2c1=O (configuration not stated),inactive: > 76.9 µM
21,CCOc1nc(NCCC2=CCCCC2)nc(N2CCOCC2)n1,inactive: > 76.9 µM
22,CC1CN(CCC(=O)Nc2ccc3c(c2)OCO3)CC(C)O1 (configuration not stated),inactive: > 76.9 µM
23,CCn1c(SCC(=O)c2ccc3c(c2)OCCO3)nnc1-c1ccco1,inactive: > 76.9 µM

row,Structure (SMILES),Potency
1,COc1ccc2[nH]cc(C(=O)CN3CCC(C)CC3)c2c1,inactive: > 76.9 µM
2,COCCN1C(=O)c2oc3cc(C)c(C)cc3c(=O)c2C1c1cccc(O)c1 (configuration not stated),inactive: > 76.9 µM
3,CC(C)(C)OC(=O)NCCc1nnc(SCC(=O)c2ccc(Cl)cc2)o1,inactive: > 76.9 µM
4,Cc1ccc2nc(Nc3nc(C)cc(C(F)(F)F)n3)nc(C)c2c1,inactive: > 76.9 µM
5,COC(=O)Cn1c(CCS(=O)(=O)c2ccc(C)c(C)c2)nc2ccccc21,inactive
6,O=C(c1cc2c(=O)oc3ccccc3c2s1)N1CCN(c2ccccn2)CC1,inactive: > 76.9 µM
7,COc1ccccc1N=c1scc(-c2ccc3c(c2)NC(=O)CO3)n1CC1CCCO1 (configuration not stated),inactive: > 76.9 µM
8,CC[N+](CC)(CC)C/C(N)=N/O,inactive: > 76.9 µM
9,Cc1nc2ccccc2c(=O)n1NC(=O)c1ccc(F)cc1Cl,inactive: > 76.9 µM
10,Cc1nnc(NC(=O)c2ccc3c(c2)C(=O)N(CC2CCCO2)C3=O)s1 (configuration not stated),inactive: > 76.9 µM
11,Cc1cc(C)cc(-n2nnc(C(=O)NCc3ccc(Cl)cc3)c2N)c1,inactive: > 76.9 µM
12,COc1ccc(OCCC(=O)Nc2cc(C)on2)cc1,inactive: > 76.9 µM
13,O=C(COc1cccc2cccnc12)NCC(F)(F)F,inactive: > 76.9 µM
14,O=C(NC(C(=O)O)c1ccccc1)c1ccc(S(=O)(=O)N2CCOCC2)cc1 (configuration not stated),inactive: > 76.9 µM
15,Cc1cc(NC(=O)COn2nnc3ccc(Cl)cc32)no1,inactive: > 76.9 µM
16,CCC(C)NC(=O)c1c(N)n(/N=C/c2ccccn2)c2nc3ccccc3nc12 (configuration not stated),inactive: > 76.9 µM
17,O=C(c1ccc2c3c(cccc13)CC2)N1CCOCC1,inactive: > 76.9 µM
18,Cc1ccc(CN2CCN(C(=O)C3CCC3)CC2)cc1,inactive: > 76.9 µM
19,Cc1ccc(NC(=O)Cn2nc(C)c3ccccc3c2=O)c(C)c1,inactive: > 76.9 µM
20,CN(C)S(=O)(=O)c1ccc(NC(=O)c2cc3ccccc3o2)cc1,inactive: > 76.9 µM
21,COc1ccc(CN(C(=O)Cn2nnc3ccccc32)C(C(=O)NC(C)(C)C)c2ccco2)cc1 (configuration not stated),inactive: > 76.9 µM
22,CN1CCN(CC(O)COCc2ccc3c(c2)OCO3)CC1 (configuration not stated),inactive: > 76.9 µM
23,O=C(Cn1nnc(-c2ccccc2)n1)OCc1ccccc1,inactive: > 76.9 µM

row,Structure (SMILES),Potency
1,COc1cc(NC(=O)CN2C(=O)c3ccccc3S2(=O)=O)c(OC)cc1Cl,inactive: > 76.9 µM
2,COc1ccc(C(=O)Nc2ccc(S(=O)(=O)N3CCCCC3)cc2)cc1OC,inactive: > 76.9 µM
3,COc1ccc(CNC(=O)Nc2cccc(C)c2)cc1,inactive: > 76.9 µM
4,CCCOC(=O)CN1C(=O)c2ccc(C(=O)OCCC)cc2C1=O,inactive: > 76.9 µM
5,CCOc1ccc(/C(O)=C2/C(=O)C(=O)N(CCOCCO)C2c2ccccn2)cc1 (configuration not stated),inactive: > 76.9 µM
6,CCN(CC)C(=O)N1CCN(S(=O)(=O)c2ccc(C)c(C)c2)CC1,inactive: > 76.9 µM
7,CC(C)(C)OC(=O)N[C@@H](Cc1c[nH]c2ccccc12)c1nnc(SCC(N)=O)o1,inactive: > 76.9 µM
8,CCCn1c(N2CCC(Cc3ccccc3)CC2)nc2c1c(=O)[nH]c(=O)n2C,inactive: > 76.9 µM
9,Cc1ccc2c(SCC(=O)NCc3ccco3)nc(-c3ccc(F)cc3)nc2c1,inactive: > 76.9 µM
10,CCCOc1cccc(C(=O)Nc2nnn(CCC)n2)c1,inactive: > 76.9 µM
11,COC1=C(OC)c2ccccc2C(C(=O)O)N/C1=C(/C)Nc1ccncc1 (configuration not stated),inactive: > 76.9 µM
12,CC(=O)Nc1ccccc1OCC(=O)c1cc(C)n(Cc2cccs2)c1C,inactive: > 76.9 µM
13,CC(C)C(c1nnnn1C1CCCCC1)N1CCOCC1 (configuration not stated),inactive: > 76.9 µM
14,CCOC(=O)c1cnn(-c2ncnc3c2oc2ccccc23)c1N,inactive: > 76.9 µM
15,CCCCCn1c2nc3ccccc3nc2c2c(=O)n(CC3CCCO3)c(C)nc21 (configuration not stated),inactive: > 76.9 µM
16,Cc1cccc(NC(=O)C23CCC(C)(/C(=N/O)C2)C3(C)C)c1 (configuration not stated),inactive: > 76.9 µM
17,N#CCCn1nnc2ccccc21,inactive: > 76.9 µM
18,C#CCNc1nc(CC)nc2c1nnn2Cc1ccccc1F,inactive: > 76.9 µM
19,CCn1c(SCC(=O)Nc2nc(C)c(C)s2)nnc1-c1cccnc1,inactive: > 76.9 µM
20,O=C(NCC(c1cccnc1)N1CCOCC1)c1cccc(Cl)c1 (configuration not stated),inactive: > 76.9 µM
21,O=S(=O)(Nc1nccs1)c1cc(Cl)ccc1Cl,inactive: > 76.9 µM
22,c1ccc(Cn2nnnc2C(c2cccnc2)N2CCN(c3ccccc3)CC2)cc1 (configuration not stated),inactive: > 76.9 µM
23,CN(CCNC(=O)CCNC(=O)Cn1ccc2ccccc2c1=O)Cc1ccccc1,inactive: > 76.9 µM

row,Structure (SMILES),Potency
1,CCC(=O)Nc1nnc(Cc2ccccc2)s1,inactive: > 76.9 µM
2,Cc1ccc(OCCC(=O)OCC(=O)N2c3ccccc3CC2C)cc1 (configuration not stated),inactive: > 76.9 µM
3,Cc1ccc2[nH]c(=O)c(-c3nc4c(C)cccn4c3NCc3ccco3)cc2c1,inactive: > 76.9 µM
4,Cn1c(SCc2cccc3ccccc23)nnc1-c1ccco1,inactive: > 76.9 µM
5,CCOC(=O)c1ccc(COC(=O)c2cc(=O)[nH]c3ccccc23)o1,inactive: > 76.9 µM
6,CCOc1cc2[nH]c(=O)n(Cc3cccc(OC)c3)c(=O)c2cc1OCC,inactive: > 76.9 µM
7,O=C(NCCc1cccc(F)c1)[C@@H]1CSC2c3ccccc3C(=O)N21 (some centres not stated),inactive: > 76.9 µM
8,O=C1CC(N2CCC(C(=O)N3CCCCC3)CC2)C(=O)N1 (configuration not stated),inactive: > 76.9 µM
9,CCCOc1ccccc1C1NC(=O)NC(C)=C1C(=O)OCCOC (configuration not stated),inactive: > 76.9 µM
10,CCCCc1c(C)nn(-c2nnc3c4ccccc4n(CC)c3n2)c1C,inactive
11,O=c1c2ccccc2n2nnnc2n1-c1ccccc1,inactive: > 76.9 µM
12,CC(=O)c1cc2c(cc1NS(=O)(=O)c1ccc(C)cc1)OCCO2,inactive: > 76.9 µM
13,O=C(c1cccc(F)c1)N1CCN(C(=O)C2CC2)CC1,inactive: > 76.9 µM
14,Cc1ccc(NC(=O)/C(CN(C)C)=N\O)cc1,inactive: > 76.9 µM
15,Cc1ccc(-c2nnc(COc3cccc(-n4cnnn4)c3)o2)cc1,inactive: > 76.9 µM
16,c1ccc2sc(SN3CCOCC3)nc2c1,inactive: > 76.9 µM
17,CC1CN(S(=O)(=O)c2ccc(-c3nc4ccccc4s3)cc2)CC(C)O1 (configuration not stated),inactive: > 76.9 µM
18,Cc1cc(-n2c(C)cc(C(=O)CSc3nnnn3-c3ccccc3)c2C)no1,inactive: > 76.9 µM
19,COC(=O)c1ccc(C2C3=C(Nc4nnnn42)c2ccccc2OC3)cc1 (configuration not stated),active: 8.19 µM
20,Cc1c(C(=O)OCC(C)(C)CN(C)C)oc2ccccc12,inactive: > 76.9 µM
21,COCCn1c(C)cc(C(=O)CSc2nc3ccccc3o2)c1C,inactive: > 76.9 µM
22,Cc1ccc2nc(NC(=O)CCNS(=O)(=O)c3ccc(Br)s3)sc2c1,inactive: > 76.9 µM
23,Cn1c(-c2ccc(F)cc2)cnc1SCC(=O)Nc1ccccc1N1CCOCC1,inactive: > 76.9 µM

# From PubChem BioAssay AID360 (National Center for Advancing Translational Sciences (NCATS), 2006)
